{"source": "PubChem BioAssay AID463173", "about": "(ICCB-Longwood Screening Facility, Harvard Medical School, 2010)", "note": "Among all 52,000 compounds or so, about 1,700 (3.3%) were called active. Cut-off read from the data, not from the text of the source: active = survival mostly below about 52% (no sharp cut-off); inactive = mostly above about 56%. The list shows a part of the results."}
{"test_system": "Wild type", "test": "growth inhibition of S. aureus wild type versus tarO mutant, primary screen, teichoic acid synthesis inhibitors, RN4220, OD600 (AID 463173)", "settings": "S. aureus RN4220 wild type/DeltatarO growth, OD600, 18 h, active compounds read low, screened at 18.75 µg/mL (by protocol)"}
{"compound": "O=C1C2C3C=CC(C3)C2C(=O)N1c1ccc2c(c1)OCO2", "note": "(configuration not stated)", "survival": "inactive: 94%"}
{"compound": "NC(=O)C1CCN(C(=O)CSc2nccc(-c3ccccc3)n2)CC1", "survival": "inactive: 92%"}
{"compound": "O=C(NCc1ccccc1)C1CCN(c2ncnc3c2nc2n3CCCCC2)CC1", "survival": "inactive: 82%"}
{"compound": "COc1ccc(C)cc1NC(=O)CSc1nc(=O)n(Cc2ccco2)c2c1CCC2", "survival": "inactive: 135%"}
{"compound": "Cc1ccc(-n2cc(-c3ccccc3)c3c(N4CCC(C)CC4)ncnc32)cc1Cl", "survival": "inactive: 91%"}
{"compound": "CCCCc1ccc(NC(=O)Cn2cnc3c(oc4ccccc43)c2=O)cc1", "survival": "inactive: 100%"}
{"compound": "O=C(NCc1ccc(Cl)cc1)c1ccc2c(c1)nnn2C1CCCC1", "survival": "inactive: 76%"}
{"compound": "CCCC(=O)Nc1ccc(NC(=O)c2ccc(OC)cc2)cn1", "survival": "inactive: 99%"}
{"compound": "Cc1nc2nc(NCc3ccccc3Cl)[nH]n2c(=O)c1Cc1ccccc1", "survival": "inactive: 86%"}
{"compound": "O=C(Nc1ccccc1OCc1cc(=O)n2ccccc2n1)Nc1ccccc1C(F)(F)F", "survival": "inactive: 83%"}
{"compound": "CCOC(=O)c1cnc2c(C)cc(C)cc2c1NCCN1CCOCC1", "survival": "inactive: 53%"}
{"compound": "CCCSC1=NC2(CCN(C(=O)NC3CCCCC3)CC2)N=C1c1ccc(C)cc1", "survival": "inactive: 73%"}
{"compound": "Cc1ccc(C)c(OCc2nc3ccccc3n2C)c1", "survival": "inactive: 85%"}
{"compound": "Cc1ccccc1NC(=O)CSc1nc2c(oc3ccccc32)c(=O)n1Cc1ccco1", "survival": "inactive: 77%"}
{"compound": "CN1CCN(NC(=O)c2ccc(Cl)cc2)CC1", "survival": "inactive: 118%"}
{"compound": "COCCNC(=O)c1cn(C(C)c2ccccc2)nn1", "note": "(configuration not stated)", "survival": "inactive: 118%"}
{"compound": "COc1cc(C(=O)Nc2ccc3nc(SCc4ccccc4)sc3c2)cc(OC)c1OC", "survival": "inactive: 86%"}
{"compound": "Cc1c2cnn(CC(=O)Nc3cccc(C(F)(F)F)c3)c(=O)c2c(C)n1Cc1ccccc1Cl", "survival": "inactive: 85%"}
{"compound": "O=C1CC(Sc2ncccc2C(=O)O)C(=O)N1", "note": "(configuration not stated)", "survival": "inactive: 110%"}
{"compound": "CCOC(=O)N1CCc2c(sc3c2c(=O)n(-c2ccc(CC)cc2)c(=O)n3CC(=O)c2ccc(F)cc2)C1", "survival": "inactive: 91%"}
{"compound": "COc1ccccc1/C=C/c1nc(C#N)c(N(C)C)o1", "survival": "inactive: 89%"}
{"compound": "O=C(c1cc2ncc(Br)cn2n1)N1CCCCC1", "survival": "inactive: 119%"}
{"compound": "Cc1c2cnn(CC(=O)NC(C)C)c(=O)c2c(C)n1Cc1ccccc1Cl", "survival": "inactive: 87%"}
{"compound": "CCN(C(=O)CSc1nc2ccccc2n1Cc1cc(C)ccc1C)c1ccccc1", "survival": "inactive: 72%"}
{"compound": "Cc1ccc(C(=O)NCC(c2cccs2)S(=O)(=O)c2cccs2)cc1", "note": "(configuration not stated)", "survival": "inactive: 85%"}
{"compound": "CCC(Sc1nncn2c1cc1occc12)C(=O)Nc1ccc(C)c(Cl)c1", "note": "(configuration not stated)", "survival": "inactive: 44%"}
{"compound": "CC(Sc1nnc(-c2ccccc2)n1N)C(=O)O", "note": "(configuration not stated)", "survival": "inactive: 109%"}
